The other results are listed elsewhere or left out. At the low end of the ranking, values are background and their order means little.

For this test, the target named is T1, GST-Rok (full length) (UniProt O34857).
T1 sequence: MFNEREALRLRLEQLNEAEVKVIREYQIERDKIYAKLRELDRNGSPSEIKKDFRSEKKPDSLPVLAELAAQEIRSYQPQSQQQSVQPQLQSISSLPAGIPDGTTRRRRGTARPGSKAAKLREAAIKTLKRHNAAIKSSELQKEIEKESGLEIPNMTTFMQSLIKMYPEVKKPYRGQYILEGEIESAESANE
Nature of the test: protein binding microarray.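 Also: rank score from −0.5 (least bound) to 0.5 (best bound).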 The settings on record: Rok is a gene silencer of Bacillus subtilis; high values mean tight binding; most listed sequences are background and not binding sites; double strand, one strand shown.
As for CGAGGTAC, the binding signal was -0.0944 E-score. The sequence AAACATCC gave a binding signal of 0.118 E-score.

Sequence ACCTCCTA came in with a binding signal of -0.019 E-score.

AATAGCCG: the binding signal was -0.0965 E-score.

The sequence ATACTTCG gave a binding signal of 0.18 E-score. Next, CGGAGTAC: -0.00494 E-score; CTGTGGCC: -0.193 E-score. Next, ACTACTGC: 0.0824 E-score. The figure for GGTTGCTA is 0.142 E-score. CGCGTATC gave a binding signal of 0.15 E-score. On to ATGAGTGA, for which the binding signal came out at 0.0309 E-score. Turning to ATGTCGTA, the binding signal was determined as 0.203 E-score.

Consider ACCGTAGA, for which the binding signal is 0.164 E-score.

As for CCACAACC, the binding signal was -0.0954 E-score. Next, CCGCTATA: 0.145 E-score; AGCCAGTC: -0.219 E-score; CTATCCGC: 0.0972 E-score. Next, AAAAAAAT: 0.119 E-score; CGATCGAA: 0.257 E-score; AACTGACC: 0.114 E-score. Next, GTGAGCAA: 0.00173 E-score; AGCTTGAT: 0.00692 E-score. As to CATGCCTA, the binding signal is -0.0265 E-score. Next, AGGTACCT: 0.202 E-score; GAGTGTCC: -0.124 E-score. Next, AGCCTGTA: -0.0814 E-score. Next, CCATATGC: -0.00822 E-score; TGGAGAAA: 0.254 E-score; CGCCGAAG: -0.282 E-score. In turn, TATGTCGA showed a binding signal of 0.132 E-score.

CTGGGATA returned a binding signal of 0.0899 E-score. The figure for CCGTTACG is 0.0216 E-score; for ATTGCGGC it is -0.0648 E-score; for ACCGTAAT it is 0.226 E-score.

In turn, CTTGGAAC came in with a binding signal of -0.0814 E-score.

AAGGAATT: the binding signal is 0.00323 E-score.

For AATGGGAC, the binding signal was -0.158 E-score. Next, TCGGAAAA: 0.0392 E-score; CAAACTTC: -0.0911 E-score; TCGTCCCA: -0.212 E-score. The figure for GCGACGCA is -0.00293 E-score. The figure for AGTATATC is 0.221 E-score; for GAGAAACA it is -0.00971 E-score. The sequence AATTTCGT displayed a binding signal of 0.244 E-score.

Turning to AGTCCATC, the binding signal is -0.0975 E-score. The figure for CACGCGAA is -0.0277 E-score; for AACGACAC it is 0.132 E-score; for ATGCCCAA it is -0.124 E-score. The figure for GACTTTAA is -0.0448 E-score; for CTCCAATA it is -0.0877 E-score. The figure for AATATCGC is -0.0495 E-score. Turning to ATGACGTA, the binding signal came to 0.0701 E-score.

As for GTCAATAA, the binding signal was found to be 0.189 E-score. Next, ATAACGTA: 0.0662 E-score. Next, GTCCTCCA: -0.327 E-score. Next, GGTGAAGA: -0.0454 E-score.

AGCCCCCG yielded a binding signal of -0.428 E-score. The figure for TAGCGTAA is 0.144 E-score.

AGGTTTCG gave a binding signal of -0.0879 E-score. Next, AGTCACTC: -0.0982 E-score; ACTAAGAG: 0.0623 E-score; GACGACCA: -0.222 E-score. Next, ACTATCTA: 0.397 E-score; CCCAACGC: -0.383 E-score.

As for TGAATTAA, the binding signal amounted to 0.172 E-score. CACCACAC had a binding signal of -0.0674 E-score.

TCCCATCA: the binding signal is 0.00399 E-score. GCCCAAAC had a binding signal of -0.242 E-score. The figure for AGGGATTA is -0.121 E-score.

The sequence GATGTCTA yielded a binding signal of 0.0895 E-score.

GAAGGACA registered a binding signal of -0.186 E-score. The figure for GTGCGCCA is -0.323 E-score. Next, CAGGGCGG: -0.249 E-score; ACATGACA: 0.0938 E-score; GCCGCAGC: -0.363 E-score. For the sequence CAGGTTGG, the binding signal was -0.0917 E-score. TGTTTCAA registered a binding signal of 0.00567 E-score.

In turn, ATTTAGTC yielded a binding signal of 0.104 E-score.

CGAACACG: the binding signal is -0.162 E-score. The figure for GATAAGGC is -0.0522 E-score; for CGATGATA it is 0.198 E-score; for GACTACAC it is 0.0505 E-score. Sequence CAATGTTC registered a binding signal of 0.0131 E-score. The figure for CTAGAACA is 0.146 E-score; for CTCTCGGC it is -0.188 E-score. Next, AGATTATC: 0.263 E-score; CTTGGGTC: -0.189 E-score; ATCATGTC: 0.00173 E-score. Next, ACCCTTGC: -0.199 E-score; GCCTCTCC: -0.216 E-score. AGTGGCTG returned a binding signal of -0.0481 E-score. Next, GCAGTCAA: -0.155 E-score; TCCACCAA: -0.0927 E-score. On to AAGTAGGA, for which the binding signal was 0.119 E-score. Next, CGGCTTAC: -0.19 E-score. Next, AGCTTTTG: 0.043 E-score; AGACGTCT: 0.121 E-score; ATAGCGAG: -0.0541 E-score. The figure for ACTATAAA is 0.341 E-score; for AACCTGGA it is -0.158 E-score; for CTGTCGTC it is -0.262 E-score. In turn, CCCATTTA registered a binding signal of 0.0192 E-score. Next, CGGGAGTC: -0.207 E-score. The sequence TACCAAGA showed a binding signal of 0.0552 E-score.

AGTTTGTC registered a binding signal of 0.0187 E-score. In turn, TACTCAAA showed a binding signal of 0.0977 E-score.

AAACTACA yielded a binding signal of 0.408 E-score. Next, CGAGACAA: 0.0302 E-score; ACACATTA: 0.207 E-score; CCCGCATC: -0.367 E-score.

These data come from PMC6212790.
